Source: PubChem BioAssay AID1645887 (National Center for Advancing Translational Sciences (NCATS), 2021)
Several values for one entry are separate records, joined by “and”; a condition that tells them apart may be missing. Equal values may be shown once. Hit rate of the full screen: of about 16,000 compounds, about 40 (0.2%) were called active. Roughly 1% stayed inconclusive and do not appear here. Calls follow the shape of the dose curve; as a rule, active = well fitted activation curve with a large enough effect; inconclusive = small, poorly fitted or top-dose-only effect, or another doubt; inactive = no such curve, though single readings can be large or run the other way. The list shows a part of the results.

Molecular target: Rap guanine nucleotide exchange factor 4 (Homo sapiens) (UniProt Q8WZA2)
Assay: Validation qHTS for agonist of cAMP-regulated guanine nucleotide exchange factor 4 (EPAC2);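 also: exchange makes BODIPY-GDP fluorescence drop when released from Rap1B; series mostly up to about 150 µM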
Settings: EPAC2 Rap1B BODIPY-GDP exchange, fluorescence; activation: stronger effect = higher value
In short: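 Fluorescent exchange assay: 100 nM EPAC2 with 250 nM RAP1B-BODIPY-GDP and 50 uM GDP; compound added, 5 min at room temperature, then read (ex 480/em 540 nm) every 5 min for 30 min. Normalized to 6.5 mM cAMP agonist control.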
% is scaled to controls: 0 for no effect and ±100 for the full control effect.

Sequence of UniProt Q8WZA2 (Q8WZA2 whole entry, looked up): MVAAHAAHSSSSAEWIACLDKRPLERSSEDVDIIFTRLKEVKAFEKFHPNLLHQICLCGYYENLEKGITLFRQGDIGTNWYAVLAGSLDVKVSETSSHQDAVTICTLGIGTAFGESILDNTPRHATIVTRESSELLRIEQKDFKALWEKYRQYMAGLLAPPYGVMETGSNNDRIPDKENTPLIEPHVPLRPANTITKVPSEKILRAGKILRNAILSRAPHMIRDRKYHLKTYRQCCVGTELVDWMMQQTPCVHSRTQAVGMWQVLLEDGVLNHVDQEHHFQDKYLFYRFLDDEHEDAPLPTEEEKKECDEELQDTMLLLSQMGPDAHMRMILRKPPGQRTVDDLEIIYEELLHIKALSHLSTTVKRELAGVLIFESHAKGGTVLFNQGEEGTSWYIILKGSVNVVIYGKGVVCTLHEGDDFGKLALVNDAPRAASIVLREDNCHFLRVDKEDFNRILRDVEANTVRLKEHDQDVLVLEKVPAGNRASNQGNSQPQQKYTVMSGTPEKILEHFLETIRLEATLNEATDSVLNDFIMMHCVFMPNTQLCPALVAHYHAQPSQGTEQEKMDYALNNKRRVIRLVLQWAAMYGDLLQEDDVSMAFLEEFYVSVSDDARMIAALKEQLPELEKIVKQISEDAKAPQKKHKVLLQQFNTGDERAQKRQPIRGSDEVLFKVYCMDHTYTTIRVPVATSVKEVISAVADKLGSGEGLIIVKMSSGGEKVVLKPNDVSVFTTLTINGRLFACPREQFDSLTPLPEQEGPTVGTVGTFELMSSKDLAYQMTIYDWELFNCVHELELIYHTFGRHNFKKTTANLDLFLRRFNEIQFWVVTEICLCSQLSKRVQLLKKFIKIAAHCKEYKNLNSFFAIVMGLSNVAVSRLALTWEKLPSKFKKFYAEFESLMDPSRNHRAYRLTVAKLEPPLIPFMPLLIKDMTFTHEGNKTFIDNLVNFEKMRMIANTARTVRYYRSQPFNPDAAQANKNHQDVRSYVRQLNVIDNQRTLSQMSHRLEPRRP

activation, inactive:
O=c1onc2cnc3ccccc3n12 -14.3% and -30.2%
c1cncc(OC2CCN(Cc3ccc4c(c3)CN(Cc3ccc5c(c3)OCO5)CCO4)CC2)c1 -2.36%
COc1ncc2nc(-c3cc(F)cc(F)c3)c(=O)n(C3CC3)c2n1 -8.91%
CN(C)c1ccc(/C=C/c2cc[n+](C)c3ccccc23)cc1 -32%
COc1ccc2c(c1)-c1nc(-n3ncc(C(=O)N(C)CCO)c3C3CC3)ncc1CC2 2.48%
CN1CCN(C(c2ccccc2)c2ccccc2)CC1 -2.95% and -1.13%
O=C(Cn1nc2ccccc2n1)N1CCOc2ccc(CN3CCc4sccc4C3)cc2C1 -1.56%
COC(=O)[C@@H]1CC2=CC(=O)CC[C@]2(C)[C@@]23O[C@@H]2C[C@@]2(C)[C@@H](CC[C@@]24CCC(=O)O4)[C@H]13 7.31%
CC(C)Cc1nc2cc(NS(=O)(=O)N(C)C)cc(C(=O)N3CCSCC3)c2n1C -7.73%
COc1cccc(Nc2ncc3ncc(=O)n(C[C@H]4CCCO4)c3n2)c1 -4.49%
O=[N+]([O-])c1ccc2cn[nH]c2c1 -0.713%
COc1cc(=O)n2c(c1C(=O)NCc1ccco1)CCN(Cc1cccc(C)n1)CC2 0.554%
O=C(O)Cc1ccc(CCNS(=O)(=O)c2ccc(Cl)cc2)cc1 -4.72%
O=C(O)c1ccccc1-c1oc2cc(O)ccc2c(=O)c1Oc1ccccc1 -6.47%
COc1ccc([C@@H]2[C@@H](O)[C@H](O)[C@@H](C)N2C)cc1OC -21.9%
c1cncc(-c2cncnc2NCc2cccs2)c1 -6.37%
N[C@@H](C(=O)O)c1ccc(C(=O)O)cc1 -29.8% and -15.6%
OC(CN1CCOCC1)c1ccccc1 (centres undefined) -3.67%
CO[C@H](C(=O)[C@@H](O)[C@@H](C)O)C1Cc2cc3cc(O[C@H]4C[C@@H](O[C@H]5C[C@@H](O)[C@H](O)[C@@H](C)O5)[C@@H](O)[C@@H](C)O4)c(C)c(O)c3c(O)c2C(=O)[C@H]1O[C@H]1C[C@@H](O[C@H]2C[C@@H](O[C@H]3C[C@](C)(O)[C@H](O)[C@@H](C)O3)[C@H](O)[C@@H](C)O2)[C@H](O)[C@@H](C)O1 (some centres undefined) 14% and 18.8%
CC(=O)OCCC(C)CCC=C(C)C (centres undefined) -19.9%
COc1ccc(F)c(CN2CCC3(CCC(CNC(=O)c4cc(C)nn4C)O3)CC2)c1 (centres undefined) -15.5%
N[C@H](Cc1c[nH]c2ccccc12)C(=O)O -18.1%
COC(=O)c1cc(OC)c(=O)c2c(OC)c(OC)ccc2c1 -25.7%
CN(C)c1ccc(-c2cc(-n3ccnc3)ncn2)cc1 -11.2%
COc1cccc(-c2nc(N3CCN(C)CC3)c3ccccc3n2)c1 -6.1%
O=S1(=O)CCOCCCN1Cc1ccc(Cl)cc1 -25.8%
Cc1cc(NC(=O)Nc2ccc3c(ccn3C)c2)sn1 -25.5% and -3.8%
N#CCCn1c(=O)cnc2cnc(N3CCNCC3)nc21 -4.04%
COC(=O)C1NC(=O)N2C(C(=O)OC)C(C)(C)S[C@H]12 (some centres undefined) -28.7%
Cc1cnc(CNc2cc(-c3ccc4c(c3)OCO4)ncn2)cn1 -11.7%
COCCn1c(=O)cnc2cnc(N(C)C)nc21 -3.55%
COc1ccc2c(c1)OC(C)CN(CCNC(=O)C1CCOC1)C2 (centres undefined) -17.3%
O=C(CCCN1CCN(c2ccccn2)CC1)c1ccc(F)cc1 -10% and 8.93%
CC(=O)N1CCC[C@H]1C(=O)NCC1Cc2cc(Cl)cc(-c3ccc4[nH]ccc4c3)c2O1 (some centres undefined) -13.1%
OC(C1=C/C(=C\c2ccncc2)c2ccccc21)c1ccncc1 (centres undefined) -21.2%
O=C(NCCc1ccccn1)C1CC12CCN(C(=O)c1cccc(C(F)(F)F)c1)CC2 (centres undefined) -3.99%
C[C@@H]1CNCCN1S(=O)(=O)c1cccc2cnccc12 -23%
CC(C)CCCC(C)C1CCC2C3CC(=O)[C@H]4CC(O)CC[C@]4(C)C3CC[C@@]12C (some centres undefined) -13%
COCC(=O)Nc1cc(C(=O)N2CC3CCC2C3)c2c(c1)nc(-c1ccncc1)n2C (centres undefined) -7.29%
C[C@@H](CN=[N+]=[N-])CN1CC[C@H](O)CCC1=O -8.93%
O=C(C[n+]1cc(Br)cc2ccccc21)c1ccc(F)cc1 -51.8%
CCC(C)[C@H]1COCCS(=O)(=O)N1Cc1ccc(Cl)cc1Cl (some centres undefined) -7.64%
Cc1c(C(=O)NCc2ccccc2Cl)sc2ncnc(NCC3CCCO3)c12 (centres undefined) -8.89%
COc1ccccc1C1CN(CCNC(=O)c2cscn2)Cc2ccccc2O1 (centres undefined) -13.1%
C#C[C@]1(O)CCC2C3CCC4=C(CCC(=O)C4)C3CC[C@@]21C (some centres undefined) 19%
CS(=O)(=O)N1CCC2(CC1)CN(C(c1ccccc1)c1ccccc1)C2 -6.97%
COc1ccc(NC(=O)N2CCCC3(CCNCC3)C2)cc1 -4.04%
Cc1cnc(CNc2nc(-c3c(C)noc3C)nc3ccccc23)cn1 -15.6%
Cc1cccc2c(C(O)c3cn(C)c4ccccc34)c[nH]c12 (centres undefined) -24.9%
Cc1cc(CNC(=O)c2cnn(-c3ncc4c(n3)-c3ccccc3CC4)c2C2CC2)on1 -4.61%
COc1ccc(-c2c(O)c3c(OC)c4c(cc3oc2=O)OC(C)(C)CC4)cc1 5.29%
CCCCC/C=C/C=C1/C(=O)C=C[C@@H]1C/C=C\CCCC(=O)O -4.08%
Cc1cnc(C)c(-c2cccc3c2OC(CNC(=O)C2(c4ccc(Cl)cc4)CC2)C3)n1 (centres undefined) -19.5%
CCN1CCN(C(=O)c2sc3ncnc(NCC4CCCO4)c3c2C)CC1 (centres undefined) -6.49%
C[C@@H](CN1CCC(Cc2ccccc2)CC1)[C@@H](O)c1ccc(O)cc1 -17.8% and -20.7%
CCCCC[C@H](O)CC[C@H]1[C@H](O)CC(=O)[C@@H]1CCCCCCC(=O)O -3.44%
CC1CC(OC(=O)c2ccccc2O)CC(C)(C)C1 (centres undefined) -10.1% and -4.57%
COC(=O)[C@H](NC(=O)c1cc(-c2ccccc2)nc2ccccc12)c1ccccc1 -14.5% and -35.2%
CC(=O)OC1CC[C@@]2(C)C3CC(=O)[C@]4(C)C(C(C)=O)=CCC4C3CC[C@H]2C1 (some centres undefined) -7%
CN(C)C(N)=NCCC[C@H](N)C(=O)O -30.1%
COC(=O)C1=C(C#N)NC(C)=C(C(=O)OC(C)C)C1c1cccc([N+](=O)[O-])c1 (centres undefined) -14.1%
N#Cc1cc2nc(O)c(O)nc2cc1[N+](=O)[O-] -4.87% and -26.5%
Nc1ccc(S(=O)(=O)NCc2ccccc2)cc1 -17.6%
NC(=O)c1ccccc1-c1nc(-n2ccnc2)c2ccccc2n1 -6.32%
COCC(=O)Nc1cc(C(=O)N2CCCCC2c2nccs2)c2c(c1)nc(-c1ccncc1)n2C (centres undefined) -6.37%
CC1(C(=O)O)NCCc2cc(O)c(O)cc21 (centres undefined) -3.09%
Cl/C(=C\n1cncn1)c1ccc(Cl)cc1Cl -16.3%
CCC(=O)NC1Cc2ccccc2C(c2ccccc2)C1 (centres undefined) 1.82%
O=C1C=CC2=C3c4cc(O)c(O)cc4C[C@]3(O)COC2=C1 -18.1%
COc1ccccc1C(=O)N(Cc1cc2cccc(C)c2nc1N1CCC(O)CC1)C1CC1 -12.8%
NC(N)=NCCC[C@@H](N)C(=O)O -0.715% and 3.02%
COc1cccc(-c2nccc(NCc3cnc(C)cn3)n2)c1 0.554%
CCNc1ncc2nc(-c3cc(F)cc(F)c3)c(=O)n(-c3ccccc3)c2n1 26.9%
Cc1cnc(-n2ncc(C(=O)NCc3ccccn3)c2C2CC2)nc1-c1cccs1 -5.87%
COC1C(O)C(CO)OC1n1cnc2c(=O)[nH]c(N)nc21 (centres undefined) -12.6%
O=C1C[C@H]2C=CCc3cccc(c32)CN1Cc1ccccc1 -25%
CNc1ncnc2ccc(-c3cccc(NS(C)(=O)=O)c3)cc12 -3.37%
COc1ccc(S(=O)(=O)NCc2nc(N3CCCC3)c3cccc(C)c3n2)cc1OC -13.4%
O=C(OC[C@H]1O[C@](O)(COC(=O)c2cccnc2)[C@@H](OC(=O)c2cccnc2)[C@@H]1OC(=O)c1cccnc1)c1cccnc1 -6.8%
CC[C@@]1(c2ccccc2)NC(=O)N(C)C1=O -3.56%
N[C@@H](Cc1cc(I)c(Oc2ccc(O)c(I)c2)c(I)c1)C(=O)O -4.69% and -0.0348%
Cc1cc(=O)oc2cc(O[C@@H]3O[C@H](C(=O)O)[C@@H](O)[C@H](O)[C@H]3O)ccc12 1.93%
COc1cc(OC)c2nc(-c3cc4c(c(OC)c3)OCCN(C(=O)CC3NC(=O)c5ccccc53)C4)cc(C)c2c1 (centres undefined) 7.32%
O=C(c1ccco1)N1CCC2(CCN(Cc3ccccc3)CC2)CC1 -14.1%
